Test results taken from a collection of fitness landscapes (doi:10.1016/j.celrep.2020.107928).
In all, about 81,000 sequences were measured (“one-hybrid fitness for binding NBS DNA”: median about -0.1, highest 2% from about 0.36 on). This is one part of the list.

B1: Caulobacter ParB omega fusion; a variant is named by its letters at X, in order, B8GW30 (parent)
chain: MESVVVGEPGMSEGRRGLGRGLSALLGEVDAAPAQAPGEQLGGSREAPIEILQRNPDQPRRTFREEDLEDLSNSIREKGVLQPILVRPSPDTAGEYQIVAGERAWRAAQRAGLKTVPIMVRELDDLAVLEIGIIENVQRADLNVLEEALSYKVLMEKFERTQENIAQTIGKSXSHVANXMRLLXLPDEVQSYLVSGELTAXHARAIAAAADPVALAKQIIEGGLSVRETEALARKAPNLSAGKSKGGRPPRVKDTDTQALESDLSSVLGLDVSIDHRGSTGTLTITYATLEQLDDLCNRLTRGI

Variants of: B1
Assay: one-hybrid fitness for binding NBS DNA (the Noc-binding site; scaled: cognate 1, non-cognate 0); higher = stronger binding
Conditions: with NBS DNA site
How it was run: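 Pre- and post-selection plasmids were Illumina-sequenced, three replicate libraries were pooled, and any variant with under 10 reads was removed. The libraries were Caulobacter ParB with four specificity codons randomised, selected in E. coli USO through a HIS3 reporter whose site is 19 bp from the promoter. Cells grew 48 hours at 37°C on M9 without histidine, with 0.1 mM IPTG and 5 mM 3-AT. Fitness is the log change in variant-to-wild-type read ratio, rescaled against cognate and non-cognate.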

Variant	one-hybrid fitness for binding NBS DNA
LAHM	≤ 0.2
LFAG	≤ 0.2
WTCM	≤ 0.2
ESNF	≤ 0.2
PINQ	≤ 0.2
KKTV	≤ 0.2
ATEK	≤ 0.2
QRRM	0.589
VEFC	≤ 0.2
TQYR	≤ 0.2
ARTH	≤ 0.2
MIGT	≤ 0.2
TYKE	≤ 0.2
GPEA	≤ 0.2
VAMT	≤ 0.2
QAQR	0.506
RDAR	≤ 0.2
RYSH	≤ 0.2
QCRH	0.693
IVFC	≤ 0.2
VQNQ	≤ 0.2
QHQG	≤ 0.2
NPQS	≤ 0.2
QCSH	0.272
HAET	≤ 0.2

Variant	one-hybrid fitness for binding NBS DNA
EDRG	≤ 0.2
MGEV	≤ 0.2
ATYW	≤ 0.2
DRFR	≤ 0.2
MPLG	≤ 0.2
AGVV	≤ 0.2
LTIT	≤ 0.2
RRHA	0.66
DDAC	≤ 0.2
CLAS	≤ 0.2
CCTG	≤ 0.2
TCSR	≤ 0.2
IHQF	≤ 0.2
KMMG	≤ 0.2
IHGS	≤ 0.2
ENFT	≤ 0.2
TFAG	≤ 0.2
RKTV	≤ 0.2
RRMC	0.288
ETCG	≤ 0.2
FTKY	≤ 0.2
QNRG	≤ 0.2
RLDK	≤ 0.2
IGMN	≤ 0.2
VHAV	≤ 0.2

Variant	one-hybrid fitness for binding NBS DNA
RETM	≤ 0.2
LNTG	≤ 0.2
CEYL	≤ 0.2
PNDS	≤ 0.2
RWMT	≤ 0.2
NCRC	≤ 0.2
PWPV	≤ 0.2
YGCS	≤ 0.2
QLVE	≤ 0.2
MTAG	≤ 0.2
TPDD	≤ 0.2
HDKF	≤ 0.2
TVLP	≤ 0.2
MYTK	≤ 0.2
ILTY	≤ 0.2
LHQC	≤ 0.2
LAYR	≤ 0.2
QRCK	0.388
AATY	≤ 0.2
PALA	≤ 0.2
DRHV	≤ 0.2
IAHP	≤ 0.2
STCG	≤ 0.2
PECE	≤ 0.2
YCTR	≤ 0.2

Variant	one-hybrid fitness for binding NBS DNA
QPYT	≤ 0.2
QIPG	≤ 0.2
HCHP	≤ 0.2
TPHI	≤ 0.2
DFHR	≤ 0.2
SMNS	≤ 0.2
FFAS	≤ 0.2
GCGR	≤ 0.2
GAHL	≤ 0.2
ILTD	≤ 0.2
AFAV	≤ 0.2
CIKR	≤ 0.2
LLET	≤ 0.2
LFHV	≤ 0.2
KPLV	≤ 0.2
SLAC	≤ 0.2
ECMR	≤ 0.2
EPQD	≤ 0.2
WAKS	≤ 0.2
LDRW	≤ 0.2
CSPY	≤ 0.2
PVKW	≤ 0.2
ALEI	≤ 0.2
QFWS	≤ 0.2
SRGW	≤ 0.2

Variant	one-hybrid fitness for binding NBS DNA
EERV	≤ 0.2
NTRL	≤ 0.2
YYRG	≤ 0.2
TFDC	≤ 0.2
LNMS	≤ 0.2
PHRT	≤ 0.2
MVRM	≤ 0.2
TFPV	≤ 0.2
TTAV	≤ 0.2
MSEL	≤ 0.2
REDS	≤ 0.2
DMKP	≤ 0.2
AWVP	≤ 0.2
NEQG	≤ 0.2
RDYF	≤ 0.2
TRQY	≤ 0.2
PVTF	≤ 0.2
QLMV	≤ 0.2
RMYN	≤ 0.2
QCCV	≤ 0.2
LQTQ	≤ 0.2
VDTV	≤ 0.2
QSLI	≤ 0.2
RKWK	≤ 0.2
MNTG	≤ 0.2

Variant	one-hybrid fitness for binding NBS DNA
QNQI	≤ 0.2
GSGI	≤ 0.2
LNGW	≤ 0.2
LTAA	≤ 0.2
IPYA	≤ 0.2
FSSI	≤ 0.2
QTEK	≤ 0.2
SNRC	≤ 0.2
ALHI	≤ 0.2
SMNC	≤ 0.2
TQGS	≤ 0.2
QPIP	≤ 0.2
RTHI	≤ 0.2
IYPF	≤ 0.2
ERCS	≤ 0.2
NWRN	≤ 0.2
INRC	≤ 0.2
QRRW	0.384
AERF	≤ 0.2
VWQC	≤ 0.2
MAHE	≤ 0.2
LYCH	≤ 0.2
NRDS	≤ 0.2
GYGR	≤ 0.2
TTPQ	≤ 0.2

Variant	one-hybrid fitness for binding NBS DNA
KNGG	≤ 0.2
MTRR	0.273
EVLF	≤ 0.2
HPSV	≤ 0.2
QNIR	≤ 0.2
CKPI	≤ 0.2
RKYD	≤ 0.2
RKRI	≤ 0.2
HTGG	≤ 0.2
KHSV	≤ 0.2
RAPH	≤ 0.2
SGLG	≤ 0.2
LWPM	≤ 0.2
LYCD	≤ 0.2
KNSV	≤ 0.2
KEFG	≤ 0.2
SIKR	≤ 0.2
QKPT	0.306
TQIL	≤ 0.2
FDPE	≤ 0.2
RATN	≤ 0.2
ANQC	≤ 0.2
SITR	≤ 0.2
KKFS	≤ 0.2
RRAG	0.357

Variant	one-hybrid fitness for binding NBS DNA
ESIC	≤ 0.2
HFLG	≤ 0.2
GPMT	≤ 0.2
QFRT	0.309
SSGF	≤ 0.2
VTRA	≤ 0.2
ASRW	≤ 0.2
IRKE	≤ 0.2
EYDS	≤ 0.2
GWLW	≤ 0.2
MIRG	≤ 0.2
MSSK	≤ 0.2
KGQM	≤ 0.2
NGEC	≤ 0.2
ELIG	≤ 0.2
PPNR	≤ 0.2
AHSC	≤ 0.2
SSAS	≤ 0.2
QGNV	≤ 0.2
LTGI	≤ 0.2
